# Test results as given in paper PMC4336329 (PLoS ONE, 2015).
# Hit rate of the full screen: of about 310,000 compounds, about 14,000 (4.5%) showed an effect of 50% or more. The effect is printed as a negative number. The list shows a part of the results.
# Biological target: human ether-à-go-go-related gene (hERG) potassium channel (human, UniProt Q12809)
# Assay: primary screen, population patch clamp on CHO cells stably expressing hERG
# 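Further: peak tail current of the secondary pulse compared with the same well before compound.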
# human ether-à-go-go-related gene (hERG) potassium channel, sequence (Q12809 whole entry, looked up): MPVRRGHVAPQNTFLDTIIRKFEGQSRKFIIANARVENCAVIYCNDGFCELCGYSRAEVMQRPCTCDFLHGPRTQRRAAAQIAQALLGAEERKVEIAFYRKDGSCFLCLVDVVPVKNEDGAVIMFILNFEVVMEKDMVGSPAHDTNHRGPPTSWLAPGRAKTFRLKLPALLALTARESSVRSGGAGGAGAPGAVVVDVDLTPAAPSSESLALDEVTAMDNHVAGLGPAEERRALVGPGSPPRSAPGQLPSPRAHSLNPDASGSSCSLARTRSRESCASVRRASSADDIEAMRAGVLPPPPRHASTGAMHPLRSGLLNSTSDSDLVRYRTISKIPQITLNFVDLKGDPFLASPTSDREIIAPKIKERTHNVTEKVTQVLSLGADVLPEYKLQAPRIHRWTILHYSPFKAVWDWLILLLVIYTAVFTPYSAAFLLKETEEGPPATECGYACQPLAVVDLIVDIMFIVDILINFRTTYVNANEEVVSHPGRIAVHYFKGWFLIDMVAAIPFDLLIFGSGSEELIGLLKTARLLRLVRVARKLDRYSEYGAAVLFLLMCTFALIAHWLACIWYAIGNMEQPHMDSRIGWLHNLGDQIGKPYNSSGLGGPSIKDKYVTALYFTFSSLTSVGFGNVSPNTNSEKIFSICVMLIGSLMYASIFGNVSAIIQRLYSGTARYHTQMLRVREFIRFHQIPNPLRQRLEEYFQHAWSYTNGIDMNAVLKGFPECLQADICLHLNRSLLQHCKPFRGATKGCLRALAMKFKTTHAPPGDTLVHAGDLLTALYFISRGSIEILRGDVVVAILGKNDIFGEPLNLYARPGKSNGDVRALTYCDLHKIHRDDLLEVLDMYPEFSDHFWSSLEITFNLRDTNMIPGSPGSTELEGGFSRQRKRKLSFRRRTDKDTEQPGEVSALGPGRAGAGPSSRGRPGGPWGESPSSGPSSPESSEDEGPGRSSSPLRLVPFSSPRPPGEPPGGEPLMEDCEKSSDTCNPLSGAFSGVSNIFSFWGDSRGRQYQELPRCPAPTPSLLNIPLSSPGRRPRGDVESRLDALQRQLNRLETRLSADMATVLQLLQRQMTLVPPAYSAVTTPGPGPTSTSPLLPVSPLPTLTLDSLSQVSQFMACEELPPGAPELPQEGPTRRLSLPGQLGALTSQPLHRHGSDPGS
row,Compound,"hERG current change (%, negative = inhibition) at 10uM [%]"
1,Cc1cc(C)cc(N2CCCC2=O)c1,16.3
2,CN1CCN(S(=O)(=O)c2ccc(-c3ccccc3)cc2)CC1,3.51
3,O=C(NNC(=O)c1cc(S(=O)(=O)N2CCCCC2)ccc1Cl)c1ccccc1O,-11
4,COc1ccc(C(=O)NCc2cn3c(C)csc3n2)cc1OC,-3.3
5,Cc1ccc(S(=O)(=O)N2CCC(C(=O)N[C@@H](Cc3ccccc3)C(=O)O)CC2)cc1,-0.0166
6,OCC[C@H]1C[C@@H](O)[C@H](O)[C@@]2(OCCc3ccccc32)O1,9.73
7,Cc1ccc(NC(=O)CSc2nc3ccccc3c(=O)n2CCCC(=O)N2CCCC2)cc1,-44.5
8,Cc1ccc(C(O)c2ccncc2)cc1 (stereo not shown),9.16
9,CC(C)NS(=O)(=O)c1ccc(OCC(=O)Nc2ccc3c(c2)OCO3)cc1,0.616
10,O=C(Nc1ccc(N2CCOCC2)c(Cl)c1)c1cccnc1,0.0219
11,O=C(Cn1ccc([N+](=O)[O-])n1)NCc1cccs1,-7.44
12,O=C(Cn1cnc2ccccc2c1=O)NCC(=O)N1CCC2(CC1)OCCO2,-8.99
13,COc1ccccc1-n1c(N)c(C(=O)NCC2CCCO2)c2nc3ccccc3nc21 (stereo not shown),0.889
14,COc1ccccc1-n1c(SCc2cc(=O)oc3cc(O)ccc23)nc2ccccc2c1=O,-11.1
15,CCOC(=O)c1c(/N=C/c2ccccc2O)sc2c1CCC2,7.89
16,O=C(Cc1ccc([N+](=O)[O-])cc1)NCc1ccccn1,-4.02
17,O=C1C2CCCCC2C(=O)N1c1ccc(NC2CCCCC2)c([N+](=O)[O-])c1 (stereo not shown),3.18
18,O=S(=O)(NC1CCSc2ccccc21)c1ccccc1 (stereo not shown),-14.1
19,Cl.O=C(NCc1nc2ccccc2[nH]1)c1c(F)c(F)c(F)c(F)c1F,1.09
20,CN(C)S(=O)(=O)N1CCN(S(=O)(=O)c2ccc(F)cc2)CC1,5.97
21,CC1=Nc2cc(C(=O)NCC3CCCO3)ccc2Sc2ccc(C)cc21 (stereo not shown),-2.64
22,O=C(Cc1ccccc1)NCCc1cccc(Cl)c1,-15.2
23,O=C(Nc1ccc(Oc2ccccc2)nc1)C1CCCCN1Cc1cccc(OCCO)c1 (stereo not shown),7.28
24,O=C(NCc1ccccc1Cl)C1CCCN1C(=O)NC1CCCCC1 (stereo not shown),13.2
25,COC(=O)CCC(=O)OC1(C)C(=O)C2=CN(C(CO)CO)C(c3ccc(OC)cc3)=CC2=C(Br)C1=O (stereo not shown),0.962
26,Cc1nn(CC(=O)NCCc2ccc(Cl)cc2)c(C)c1[N+](=O)[O-],-24.1
27,CC(=O)Nc1ccc(S(=O)(=O)N2CCCCC2C(=O)O)cc1 (stereo not shown),17.9
28,COc1cc2[nH]c(=O)n(CCC(=O)N3CCN(Cc4ccc5c(c4)OCO5)CC3)c(=O)c2cc1OC,1.83

row,Compound,"hERG current change (%, negative = inhibition) at 10uM [%]"
1,COc1cccc(/C=N/n2c(C)nc3ccccc3c2=O)c1O,-3.03
2,C=CCNC(=O)COc1cc(C)cc(C)c1C,35.1
3,CC1CCCN(C(=O)COC(=O)c2ccc3[nH]c4c(c3c2)CCCC4)C1 (stereo not shown),-1.02
4,CCC(C)NC(=O)C(Cc1ccccc1)NS(=O)(=O)c1cccc2nsnc12 (stereo not shown),-4.67
5,CN(/C=C/C(=C/C=[N+](C)c1ccccc1)OCCCS(=O)(=O)[O-])c1ccccc1,10.4
6,Cn1nc(-c2ccc(N3CCN(CCO)CC3)c([N+](=O)[O-])c2)c2ccccc2c1=O,-1.73
7,COc1ccc(C(CC(=O)O)n2cnnn2)cc1.Cl (stereo not shown),-6.02
8,O=C(CCN1C(=O)S/C(=C\c2ccccc2)C1=O)Nc1ccc(O)cc1C(=O)O,19.6
9,CCN(C(=O)CN1CCN(c2ccccc2OC)CC1)c1c(N)n(Cc2ccccc2)c(=O)[nH]c1=O,8.19
10,COc1ccc(NC(=O)CSc2nnnn2C2CCCC2)cc1,8.06
11,O=C(NCc1ccc2c(c1)OCO2)C1CC(=O)N(C2CCCC2)C1 (stereo not shown),4.86
12,CC(C)(C)N(Cc1ccccc1)C(=O)COC(=O)c1ccc(Br)o1,13.6
13,O=C(NCC1CCCO1)c1nn2c(c1Cl)NC(c1ccc(F)cc1)CC2C(F)(F)F (stereo not shown),-29.5
14,O=C(c1cc(S(=O)(=O)N2CCN(c3ccccc3)CC2)ccc1Cl)N1CCCC(C(F)(F)F)C1 (stereo not shown),-16.2
15,Cc1ccc(N2CCN(S(=O)(=O)c3ccc4oc(=O)ccc4c3)CC2)cc1Cl,3.42
16,C/C(CC(=O)Nc1c(C)cc(C)cc1C)=N\NC(=O)c1cnccn1,8.75
17,CC(=O)N1CCc2cc(S(=O)(=O)Nc3ccc(C)cc3C)ccc21,4.5
18,COc1ccc2cc(CN(Cc3cccnc3)Cc3nnnn3Cc3ccccc3)c(=O)[nH]c2c1,-74.4
19,O=C(Nc1ccc(S(=O)(=O)NCc2ccco2)cc1)c1ccncc1,3.33
20,C/C(=N\NC(=O)C(N)=O)c1cccc([N+](=O)[O-])c1,11.8
21,CCN(C(=O)c1cn(C)c(=O)c2cc(OC)c(OC)cc12)c1ccccc1C,-16
22,CCOC(=O)c1c(C)[nH]c(C(=O)CN2C(=O)C(=O)N(CC(C)C)C2=O)c1C,12.7
23,CC(=O)Nc1nnc(S(=O)(=O)N2CCN(c3ccc(Cl)cc3[N+](=O)[O-])CC2)s1,7.86
24,Cc1ccc(N2CCN(C(=O)c3cc(C(=O)c4ccccc4C)c[nH]3)CC2)c(C)c1,14.8
25,COCCCNC(=O)C1c2ccccc2Oc2ccccc21,13.6
26,Nc1[nH][nH]c(=O)c1N=Nc1cccc(Cl)c1,16.9
27,CC(C)Cn1c(=O)n(C)c(=O)c2[nH]cnc21,10.7
